# In PubChem BioAssay (NCATS):
# Inconclusive results, whose numbers are uncertain, are shown with a selection of clear calls. Potencies of inconclusive entries are doubtful fits and often do not repeat. Activity calls are given as the source filed them. The call rests on the fitted dose curve; in most records, active means well fitted activation curve with a large enough effect in the signal ratio, with a control signal flat (not every such curve was filed as active); inconclusive means small, poorly fitted or top-dose-only effect, or effect the other way, or a change in a side signal; inactive means flat fitted curve, though single readings scatter; the % refers to the signal ratio.
# Assay: qHTS Assay for Identification of Small Molecule Agonists for Hypoxia Response Element Signaling Pathway (AID 914); on activation: top concentration of the series differs between compounds; % of control where 0% means no effect
# Details: ME-180 (cervical carcinoma) HRE-bla reporter, beta-lactamase ratio, CoCl2, 17 h; activation: stronger effect = higher value
# Procedure, shortened: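 Compounds in a titration series were added to ME-180 reporter cells alongside an EC50 level of CoCl2. After 17 hours, beta-lactamase activity was read as the 460nm/530nm emission ratio of CCF4, giving AC50 values.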
# Potency means the concentration at half of the fitted maximal effect; tags describe the fitted curve by direction and shape or compound fluorescence and quenching.
Structure (SMILES),activation,Potency
CCSc1nnc(NC(=O)NCC(F)(F)F)s1,inconclusive: 22.4%,
CS(=O)(=O)N1CCC2(CCCN(c3cccc(-c4ccccc4)c3)C2)CC1,inactive: -18.3%,
C[C@@]1(C(=O)O)CCC[C@@H]1C(=O)O,inactive: 4.07%,
CCN(CC)CCCN1C(=O)C(=O)/C(=C(/O)c2ccc3c(c2)CC(C)O3)C1c1cccnc1 (stereo not given),,"inconclusive: 5.01 µM [activator, single point]"
O=c1oc2ccccc2c(O)c1/C=N/c1nc(-c2ccc(O)c(O)c2)cs1,,"inconclusive: 3.98 µM [inhibitor, single point]"
COC(=O)/C(C#N)=C1/SC=C(C)N1c1ccccc1,inactive: -6.52%,
CCCC(=O)N(Cc1cc2ccccc2[nH]c1=O)c1ccccc1OC,inactive: -13.3%,
Cc1ccc2c(c1)N[C@H](c1ccc(C(=O)O)cc1)c1cccn1-2,inactive: -21.9%,
CC(=O)NCCCCCCNC(C)=O,,"inconclusive: 12.6 µM [inhibitor, single point]"
CC1(C)CC(=O)c2cc(C(=O)N3CCCC(C)(C)C3)c(=O)n(-c3ccccc3)c2C1,,active: 3.98 µM
O=c1c(-c2ccccc2)nc2cnc(Oc3ccccc3)nc2n1Cc1cccs1,inconclusive: 41%,
COCC(=O)N1CCC2(CCN(Cc3nccs3)CC2)CC1,inactive: 14.8%,
Cn1c(=O)c2c(nc(OCc3cccnc3)n2Cc2ccccc2)n(C)c1=O,inconclusive: -32%,
CC(C)=CCC/C(C)=C/CO/N=C1/C[C@@H](O)[C@@H](O)[C@@H]2[C@@H]3C(=O)N(c4cccc(Oc5ccccc5)c4)C(=O)[C@H]3CC[C@@H]12,inactive: 6.84%,
CCOc1ccc(/C(O)=C2/C(=O)C(=O)N(CCN(C)C)C2c2ccccc2)cc1Cl (stereo not given),inactive: 2.13%,
O=C(c1cccc(F)c1)N1CCC2(CC1)CCN(c1cccc(-c3ccccc3)c1)CC2,inconclusive: -28.7%,
O=C(CSc1nnc(-c2ccco2)c(-c2ccco2)n1)Nc1ccccc1,inactive: -14.8%,
COc1ccc(C2C(C(C)=O)=C(O)C(=O)N2c2nccs2)cc1OC (stereo not given),inactive: -13.7%,
CC1=C(\C=C/C(C)=C/C=C\C(C)=C\C(=O)Nc2ccc(O)cc2)C(C)(C)CCC1,,"inconclusive: 12.6 µM [inhibitor, full curve, poor fit]"
CCOC(=O)c1c(C(F)(F)C(F)(F)C(F)(F)C(F)(F)F)n[nH]c1C,inconclusive: 28.6%,
CCCc1nc2n[nH]c(N)c2c2c1COC(C)(C)C2,inconclusive: 22.7%,
CCCCNc1nc2c(c(=O)n(C)c(=O)n2C)n1Cc1cccc(OC)c1,,"inconclusive: 3.16 µM [inhibitor, full curve]"
CO[C@@H]1COC(=O)CCC[C@@H](C)[C@H](OC)COC(=O)[C@H](Cc2ccccc2)NC(=O)C/C=C\[C@H]1C,inconclusive: -1.43%,
CCOc1ccc(-c2nnc3sc(-c4ccccc4OC)nn23)cc1,inactive: -10.9%,
Nc1ccc2[nH]ncc2c1,,"inconclusive: 10 µM [inhibitor, partial curve]"
c1ccc(-c2cc(-c3cc(-c4ccccn4)[nH]n3)n[nH]2)nc1,inactive: 3.17%,
CC(=O)OCC(=O)[C@@]1(O)CC[C@H]2[C@@H]3CCC4=CC(=O)C=C[C@]4(C)[C@@]3(Cl)[C@@H](Cl)C[C@@]21C,,"inconclusive: 0.005 µM [inhibitor, full curve]"
O=C(O)[C@H]([C@H]1NCCS1)N1Cc2ccccc2C1,inactive: 13.9%,
CC(C)=CCC/C(C)=C/CO/N=C1/[C@H]2O[C@@H]2[C@@H](O)[C@H]2[C@H]1CCn1c(=O)n(C)c(=O)n12,inconclusive: -8.47%,
Clc1ccccc1/C=C\c1ccnc2ccccc12,inactive: -24.5%,
